Binding signal (RPM ratio (pull-down/input)) data for 40 sequences are collected here from paper PMC12820563.

Some of the results follow. The list includes weakly bound sequences.

In the assay the target is T1, MBP-FoxP3dN (UniProt Q99JB6).
T1 sequence: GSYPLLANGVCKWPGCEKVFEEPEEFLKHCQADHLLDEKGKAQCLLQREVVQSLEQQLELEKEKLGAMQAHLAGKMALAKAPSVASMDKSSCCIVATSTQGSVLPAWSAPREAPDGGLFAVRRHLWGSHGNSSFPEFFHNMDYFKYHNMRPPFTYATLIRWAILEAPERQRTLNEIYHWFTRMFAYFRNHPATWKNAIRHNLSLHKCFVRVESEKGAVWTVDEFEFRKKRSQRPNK
Briefly: PD-seq (MBP pull-down with sequencing). Conditions: 20 mM Tris-HCl pH 7.5, 100 mM NaCl, 1.5 mM MgCl2, 0.4 uM protein, 0.1 uM dsDNA library, 30 min, room temperature, amylose pull-down; high values mean tight binding; double strand, one strand shown.
Consider “GATGATTGTTCTCCCAGCTGATGAATTGCATCTGTCGAGTAAACAAATTTTCCTAATCTTTCTGTTCAAGCGCCATCTAC”, for which the binding signal (RPM ratio (pull-down/input)) came out at 3.85. With “GATGATTGTTCTCCCAGCTGATGAATTGCTCGTTTCGAGTAAACAAATTTTCCTAATCTTTCTGTTCAAGCGCCATCTAC”, the binding signal (RPM ratio (pull-down/input)) is 0.594. On to “GATGATTGTTCTCCCAGCTGATGAATTTGAGGAGTCGAGTAAACAAATTTTCCTAATCTTTCTGTTCAAGCGCCATCTAC”, for which the binding signal (RPM ratio (pull-down/input)) was found to be 0.291.

Turning to “GATGATTGTTCTCCCAGCTGATGAATTAATAAGGTCGAGTAAACAAATTTTCCTAATCTTTCTGTTCAAGCGCCATCTAC”, the binding signal (RPM ratio (pull-down/input)) was 0.275.

“GATGATTGTTCTCCCAGCTGATGAATTCGATGAGTCGAGTAAACAAATTTTCCTAATCTTTCTGTTCAAGCGCCATCTAC”: the binding signal (RPM ratio (pull-down/input)) is 0.641. For the sequence “GATGATTGTTCTCCCAGCTGATGAATTCCAAAAATCGAGTAAACAAATTTTCCTAATCTTTCTGTTCAAGCGCCATCTAC”, the binding signal (RPM ratio (pull-down/input)) worked out at 0.174. Turning to “GATGATTGTTCTCCCAGCTGATGAATTACCGCAGTCGAGTAAACAAATTTTCCTAATCTTTCTGTTCAAGCGCCATCTAC”, the binding signal (RPM ratio (pull-down/input)) was found to be 0.486. On to “GATGATTGTTCTCCCAGCTGATGAATTGCGAGAGTCGAGTAAACAAATTTTCCTAATCTTTCTGTTCAAGCGCCATCTAC”, for which the binding signal (RPM ratio (pull-down/input)) came to 0.493. Consider “GATGATTGTTCTCCCAGCTGATGAATTTTGCTGGTCGAGTAAACAAATTTTCCTAATCTTTCTGTTCAAGCGCCATCTAC”, for which the binding signal (RPM ratio (pull-down/input)) came out at 1.93.

Consider “GATGATTGTTCTCCCAGCTGATGAATTGGTGTTATCGAGTAAACAAATTTTCCTAATCTTTCTGTTCAAGCGCCATCTAC”, for which the binding signal (RPM ratio (pull-down/input)) is 2.04. In the case of “GATGATTGTTCTCCCAGCTGATGAATTCGGTTTGTCGAGTAAACAAATTTTCCTAATCTTTCTGTTCAAGCGCCATCTAC”, the binding signal (RPM ratio (pull-down/input)) was determined as 3.22.

As for “GATGATTGTTCTCCCAGCTGATGAATTTTCATTCTCGAGTAAACAAATTTTCCTAATCTTTCTGTTCAAGCGCCATCTAC”, the binding signal (RPM ratio (pull-down/input)) stood at 0.385.

With “GATGATTGTTCTCCCAGCTGATGAATTCAGTATCTCGAGTAAACAAATTTTCCTAATCTTTCTGTTCAAGCGCCATCTAC”, the binding signal (RPM ratio (pull-down/input)) was found to be 3.25. As for “GATGATTGTTCTCCCAGCTGATGAATTAGGGGCCTCGAGTAAACAAATTTTCCTAATCTTTCTGTTCAAGCGCCATCTAC”, the binding signal (RPM ratio (pull-down/input)) turned out to be 0.504. Then “GATGATTGTTCTCCCAGCTGATGAATTGGCAGATTCGAGTAAACAAATTTTCCTAATCTTTCTGTTCAAGCGCCATCTAC”, with 0.278. “GATGATTGTTCTCCCAGCTGATGAATTGGGTTGTTCGAGTAAACAAATTTTCCTAATCTTTCTGTTCAAGCGCCATCTAC”: the binding signal (RPM ratio (pull-down/input)) was 2.43.

For “GATGATTGTTCTCCCAGCTGATGAATTCTAGCGTTCGAGTAAACAAATTTTCCTAATCTTTCTGTTCAAGCGCCATCTAC”, the binding signal (RPM ratio (pull-down/input)) was found to be 1.13. On to “GATGATTGTTCTCCCAGCTGATGAATTGAACCAGTCGAGTAAACAAATTTTCCTAATCTTTCTGTTCAAGCGCCATCTAC”, for which the binding signal (RPM ratio (pull-down/input)) stood at 0.368. Then “GATGATTGTTCTCCCAGCTGATGAATTCAGACGATCGAGTAAACAAATTTTCCTAATCTTTCTGTTCAAGCGCCATCTAC”, with 0.222. In the case of “GATGATTGTTCTCCCAGCTGATGAATTCAAGTAGTCGAGTAAACAAATTTTCCTAATCTTTCTGTTCAAGCGCCATCTAC”, the binding signal (RPM ratio (pull-down/input)) came to 0.369. Turning to “GATGATTGTTCTCCCAGCTGATGAATTTGTCACCTCGAGTAAACAAATTTTCCTAATCTTTCTGTTCAAGCGCCATCTAC”, the binding signal (RPM ratio (pull-down/input)) was 5.41. For “GATGATTGTTCTCCCAGCTGATGAATTGAATGATTCGAGTAAACAAATTTTCCTAATCTTTCTGTTCAAGCGCCATCTAC”, the binding signal (RPM ratio (pull-down/input)) was found to be 0.737.

For the sequence “GATGATTGTTCTCCCAGCTGATGAATTATCAATCTCGAGTAAACAAATTTTCCTAATCTTTCTGTTCAAGCGCCATCTAC”, the binding signal (RPM ratio (pull-down/input)) was 0.36.

In the case of “GATGATTGTTCTCCCAGCTGATGAATTTGCCGGGTCGAGTAAACAAATTTTCCTAATCTTTCTGTTCAAGCGCCATCTAC”, the binding signal (RPM ratio (pull-down/input)) was found to be 0.457. “GATGATTGTTCTCCCAGCTGATGAATTGTTCGATTCGAGTAAACAAATTTTCCTAATCTTTCTGTTCAAGCGCCATCTAC”: the binding signal (RPM ratio (pull-down/input)) was determined as 0.408.

Take “GATGATTGTTCTCCCAGCTGATGAATTTTATACGTCGAGTAAACAAATTTTCCTAATCTTTCTGTTCAAGCGCCATCTAC”: the binding signal (RPM ratio (pull-down/input)) came out at 0.442. For “GATGATTGTTCTCCCAGCTGATGAATTCTCTGTTTCGAGTAAACAAATTTTCCTAATCTTTCTGTTCAAGCGCCATCTAC”, the binding signal (RPM ratio (pull-down/input)) was determined as 0.335. Turning to “GATGATTGTTCTCCCAGCTGATGAATTGCTGGGGTCGAGTAAACAAATTTTCCTAATCTTTCTGTTCAAGCGCCATCTAC”, the binding signal (RPM ratio (pull-down/input)) was found to be 0.424.

Regarding “GATGATTGTTCTCCCAGCTGATGAATTATATTATTCGAGTAAACAAATTTTCCTAATCTTTCTGTTCAAGCGCCATCTAC”, the binding signal (RPM ratio (pull-down/input)) turned out to be 4.44. For the sequence “GATGATTGTTCTCCCAGCTGATGAATTAATTTGCTCGAGTAAACAAATTTTCCTAATCTTTCTGTTCAAGCGCCATCTAC”, the binding signal (RPM ratio (pull-down/input)) came to 3.03.

On to “GATGATTGTTCTCCCAGCTGATGAATTACTTAGATCGAGTAAACAAATTTTCCTAATCTTTCTGTTCAAGCGCCATCTAC”, for which the binding signal (RPM ratio (pull-down/input)) was 0.326. “GATGATTGTTCTCCCAGCTGATGAATTGTCTACTTCGAGTAAACAAATTTTCCTAATCTTTCTGTTCAAGCGCCATCTAC”: the binding signal (RPM ratio (pull-down/input)) is 0.906. As to “GATGATTGTTCTCCCAGCTGATGAATTATGTCTATCGAGTAAACAAATTTTCCTAATCTTTCTGTTCAAGCGCCATCTAC”, the binding signal (RPM ratio (pull-down/input)) worked out at 2.44.

On to “GATGATTGTTCTCCCAGCTGATGAATTAAGCTAGTCGAGTAAACAAATTTTCCTAATCTTTCTGTTCAAGCGCCATCTAC”, for which the binding signal (RPM ratio (pull-down/input)) is 0.894. In the case of “GATGATTGTTCTCCCAGCTGATGAATTACAGCTCTCGAGTAAACAAATTTTCCTAATCTTTCTGTTCAAGCGCCATCTAC”, the binding signal (RPM ratio (pull-down/input)) was found to be 0.501. In the case of “GATGATTGTTCTCCCAGCTGATGAATTCCGACCATCGAGTAAACAAATTTTCCTAATCTTTCTGTTCAAGCGCCATCTAC”, the binding signal (RPM ratio (pull-down/input)) was 0.529. Consider “GATGATTGTTCTCCCAGCTGATGAATTTAATGGATCGAGTAAACAAATTTTCCTAATCTTTCTGTTCAAGCGCCATCTAC”, for which the binding signal (RPM ratio (pull-down/input)) came to 0.446. For “GATGATTGTTCTCCCAGCTGATGAATTGGGTCTCTCGAGTAAACAAATTTTCCTAATCTTTCTGTTCAAGCGCCATCTAC”, the binding signal (RPM ratio (pull-down/input)) was determined as 0.461. With “GATGATTGTTCTCCCAGCTGATGAATTGCGAACATCGAGTAAACAAATTTTCCTAATCTTTCTGTTCAAGCGCCATCTAC”, the binding signal (RPM ratio (pull-down/input)) came to 0.776. To “GATGATTGTTCTCCCAGCTGATGAATTTAAGAAATCGAGTAAACAAATTTTCCTAATCTTTCTGTTCAAGCGCCATCTAC” belongs 0.267.
